The target in assay [1] is T1, recombinant human VEGF-A165 (human, UniProt P15692-4 27-191).
T1 sequence (looked up): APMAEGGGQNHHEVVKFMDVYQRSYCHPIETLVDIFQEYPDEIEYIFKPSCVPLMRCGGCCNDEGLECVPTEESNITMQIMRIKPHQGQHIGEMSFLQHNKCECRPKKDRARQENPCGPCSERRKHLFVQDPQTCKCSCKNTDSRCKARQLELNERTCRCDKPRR
Description: cell-based or functional assay.

Assay [2] concerns the target T2, recombinant human VEGF-C (human, UniProt P49767 103-227, limits assumed).
T2 sequence (looked up): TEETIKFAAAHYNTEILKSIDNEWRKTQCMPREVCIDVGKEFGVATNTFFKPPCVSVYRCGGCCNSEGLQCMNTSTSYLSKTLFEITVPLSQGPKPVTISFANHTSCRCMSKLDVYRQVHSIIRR
Put plainly: SPR Biacore; Fc fusion captured on anti-human IgG (Fc) antibody chip, VEGF-C as analyte, 1:1 model. The text has this:
(§1) The 1:1 binding model was used to measure the binding affinity and/or kinetics.

Assay [3] has as its target T3, human PlGF (human, UniProt P49763-2 19-149, limits assumed).
T3 construct: also called P1GF; PGF
T3 sequence (looked up): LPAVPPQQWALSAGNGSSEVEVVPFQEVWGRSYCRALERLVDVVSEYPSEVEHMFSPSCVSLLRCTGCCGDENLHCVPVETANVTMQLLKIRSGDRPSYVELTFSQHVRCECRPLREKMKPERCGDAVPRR
Description: SPR Biacore; Fc fusion captured on anti-human IgG (Fc) antibody chip, PlGF as analyte, 1:1 model.
Excerpt: as §1

Another assay concerns the target T4, human VEGF-B 167/189 (human, UniProt P49765-2 22-188, limits assumed).
T4 sequence (looked up): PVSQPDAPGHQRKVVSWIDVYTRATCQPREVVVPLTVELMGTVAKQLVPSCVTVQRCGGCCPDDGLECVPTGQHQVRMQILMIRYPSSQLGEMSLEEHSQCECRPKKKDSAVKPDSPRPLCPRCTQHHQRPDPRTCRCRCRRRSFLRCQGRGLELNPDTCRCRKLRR
Description: SPR Biacore; Fc fusion captured on anti-human IgG (Fc) antibody chip, VEGF-B167/189 as analyte, 1:1 model.
Excerpt: as §1
(In general: SPR reads the build-up and loss of mass on a sensor chip optically.)

Assay [4] concerns the target T2, recombinant human VEGF-C. Description: cell-based or functional assay.
For assay [5], the target named is T1, recombinant human VEGF-A165. Put plainly: cell-based or functional assay. The source holds these as a separate data set.
Assay [6] has as its target T2, recombinant human VEGF-C. Description: cell-based or functional assay. The source holds these as a separate data set.
The target of assay [7] is T2, recombinant human VEGF-C. Put plainly: SPR Biacore; Fc fusion captured on anti-human IgG (Fc) antibody chip, VEGF-C as analyte, 1:1 model.
Excerpt: as §1
This is another data set of the same source.

In assay [8] the target is T1, recombinant human VEGF-A165. Put plainly: cell-based or functional assay. This is another data set of the same source.
Assay [9] has the same target. Put plainly: SPR Biacore; Fc fusion captured on anti-human IgG (Fc) antibody chip, VEGF-A165 as analyte, 1:1 model.
Excerpt: as §1

Assay [10] addresses T3, human PlGF. Put plainly: SPR Biacore; Fc fusion captured on anti-human IgG (Fc) antibody chip, PlGF as analyte, 1:1 model.
Excerpt: as §1
The source holds these as a separate data set.

Assay [11] has as its target T2, recombinant human VEGF-C. Description: cell-based or functional assay. The source holds these as a separate data set.
Assay [12] deals with T1, recombinant human VEGF-A165. Put plainly: cell-based or functional assay. The source holds these as a separate data set.
Assay [13] has as its target T2, recombinant human VEGF-C. Description: cell-based or functional assay. This is another data set of the same source.
The target of assay [14] is T5, recombinant human VEGF-D (human, UniProt O43915 93-201, limits assumed).
T5 sequence (looked up): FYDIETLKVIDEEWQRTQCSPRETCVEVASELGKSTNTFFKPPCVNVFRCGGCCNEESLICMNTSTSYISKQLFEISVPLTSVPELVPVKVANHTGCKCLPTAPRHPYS
Put plainly: cell-based or functional assay.

Assay [15] concerns the target T2, recombinant human VEGF-C. Put plainly: cell-based or functional assay. This is another data set of the same source.
Assay [16] addresses T5, recombinant human VEGF-D. Description: cell-based or functional assay. This is another data set of the same source.

Where two headings read alike, the source gives them in different places.

The Kd is the concentration at which binding is half-saturated. As a reminder, the koff is a measure of how fast the partners let go of each other. What is called kon is the second-order rate constant of association.

B1: EB-101 (Fc fusion)
chain: SDTGRPFVEMYSEIPEIIHMTEGRELVIPCRVTSPNITVTLKKFPLDTLIPDGKRIIWDSRKGFIISNATYKEIGLLTCEATVNGHLYKTNYLTHRQTNTIIDVVLSPSHGIELSVGEKLVLNCTARTELNVGIDFNWEYPSSKHQHKKLVNRDLKTQSGSEMKKFLSTLTIDGVTRSDQGLYTCAASSGLMTKKNSTFVRVHEKYSMTPPTLNITEESHVIDTGDSLSISCRGQHPLEWAWPGAQEAPATGDKDSEDTGVVRDCEGTDARPYCKVLLLHEVHANDTGSYVCYYKYIKARIEGTTAASSYVFVRDFEQPFINKPDTLLVNRKDAMWVPCLVSIPGLNVTLRSQSSVLWPDGQEVVWDDRRGMLVSTPLLHDALYLQCETTWGDQDFLSNPFLVHITGNELGGSGGGSGGGGSGGGGGSGGGG[human IgG1 Fc not given here]
notes: About 200 kDa non-reduced on SDS-PAGE; also called VEGFR-1-D2-VEGFR-2-D3-VEGFR-3-D1D2-Fc
Take B1: the “IC50, inhibition of VEGF-A165 (60 ng/mL) mediated VEGFR-2 signaling, VEGFR-2-NFAT-RE luciferase reporter cells” value in assay [1] was found to be 0.231 nM; in assay [5] it was 0.21 nM. For the same molecule, the Kd with recombinant human VEGF-C [2] was 0.464 nM; with human PlGF [3], 0.209 nM; with human VEGF-B 167/189 it was 0.14 nM; with recombinant human VEGF-C [7], 0.46 nM; in [9] it was 0.00751 nM; with human PlGF [10] it was 0.21 nM. For the same molecule, the off-rate constant (koff) is 0.00144 s⁻¹ in the assay with recombinant human VEGF-C [2] and 0.00315 s⁻¹ in the assay with human PlGF [3]. The kon in the assay with recombinant human VEGF-C [2] worked out at 3.11e+06 M⁻¹ s⁻¹; in the assay with human PlGF [3] it was 1.68e+07 M⁻¹ s⁻¹. In addition, the “IC50, inhibition of VEGF-C (25 ng/mL) mediated VEGFR-2 signaling, VEGFR-2-NFAT-RE luciferase reporter cells” value with recombinant human VEGF-C [4] was found to be 24.5 nM; with recombinant human VEGF-C [11] it was 15.8 nM. Further, in the assay with recombinant human VEGF-C [6], the “IC50, inhibition of VEGF-C (40 ng/mL on the sheet) mediated HLEC proliferation, alamarBlue reduction” value was found to be 20.8 nM. Also, the “IC50, inhibition of VEGF-A165 (100 ng/mL on the sheet) mediated HLEC proliferation, alamarBlue reduction” value in assay [8] amounted to 0.82 nM.

B2: EB-101BIb (Fc fusion)
chain: SDTGRPFVEMYSEIPEIIHMTEGRELVIPCRVTSPNITVTLKKFPLDTLIPDGKRIIWDSRKGFIISNATYKEIGLLTCEATVNGHLYKTNYLTHRQTNTIIDVVLSPSHGIELSVGEKLVLNCTARTELNVGIDFNWEYPSSKHQHKKLVNRDLKTQSGSEMKKFLSTLTIDGVTRSDQGLYTCAASSGLMTKKNSTFVRVHEKGGSGGGSGGGGSGGGGGSGGGGYSMTPPTLNITEESHVIDTGDSLSISCRGQHPLEWAWPGAQEAPATGDKDSEDTGVVRDCEGTDARPYCKVLLLHEVHANDTGSYVCYYKYIKARIEGTTAASSYVFVRDFEQPFINKPDTLLVNRKDAMWVPCLVSIPGLNVTLRSQSSVLWPDGQEVVWDDRRGMLVSTPLLHDALYLQCETTWGDQDFLSNPFLVHITGNELYDIQLLPRKSLELLVGEKLVLNCTVWAEFNSGVTFDWDYPGKQAERGKWVPERRSQQTHTELSSILTIHNVSQHDLGSYVCKANNGIQRFRESTEVIVHEN[human IgG1 Fc not given here]
Take B2: in assay [1], the “IC50, inhibition of VEGF-A165 (60 ng/mL) mediated VEGFR-2 signaling, VEGFR-2-NFAT-RE luciferase reporter cells” value was 0.811 nM. Besides, the “IC50, inhibition of VEGF-A165 (60 ng/mL) mediated HLEC proliferation, alamarBlue reduction” value in assay [12] was determined as 0.505 nM. In addition, the “IC50, MIXED STIMULUS VEGF-C (25 ng/mL) + VEGF-D (250 ng/mL on the sheet): inhibition of VEGFR-2 signaling, VEGFR-2-NFAT-RE luciferase reporter cells; one IC50 for the mixture” value with recombinant human VEGF-C [13] and in the assay with recombinant human VEGF-D [14] was 3.17 nM throughout. The “IC50, MIXED STIMULUS VEGF-C (25 ng/mL) + VEGF-D (150 ng/mL): inhibition of HLEC proliferation, alamarBlue reduction; one IC50 for the mixture” value with recombinant human VEGF-C [15] and with recombinant human VEGF-D [16] was 1.09 nM in each case.

Values taken from patent publication US20230399377A1 (ELUMINEX BIOSCIENCES SUZHOU, published 2023).
